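In this assay, cells in 96-well plates receive the compound at five concentrations for 48 hours. Endpoints are linearly interpolated between the surrounding concentrations. The concentration for 50% growth inhibition is given as GI50.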 Not every entry of the source has a single result; some have several. The other results are left out here. There may be further records. Records of one sample usually come from different ranges of test concentrations, which the source does not state; a value can be the end of its range. Brackets tell where a record comes from. A, B and so on number the origins entry by entry.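 TGI: concentration producing complete growth inhibition.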
Experiments:
Test in all cases: growth of human tumour cells (NCI), 48 h
[1] = tested on: SF-268 CNS
[2] = tested on: BT-549 breast
[3] = tested on: SK-MEL-5 melanoma
[4] = tested on: OVCAR-5 ovarian
[5] = tested on: SK-OV-3 ovarian
[6] = tested on: OVCAR-8 ovarian
[7] = tested on: SF-539 CNS
[8] = tested on: SNB-75 CNS
[9] = tested on: ACHN renal
[10] = tested on: SK-MEL-2 melanoma
[11] = tested on: SW-620 colon
[12] = tested on: HOP-92 NSCLC
[13] = tested on: SK-MEL-28 melanoma
[14] = tested on: U251 CNS
[15] = tested on: CAKI-1 renal
[16] = tested on: MALME-3M melanoma
[17] = tested on: A549 NSCLC
[18] = tested on: SR leukemia
[19] = tested on: M14 melanoma
[20] = tested on: XF 498 CNS
[21] = tested on: MDA-MB-231 breast
[22] = tested on: SNB-19 CNS
[23] = tested on: SF-295 CNS
[24] = tested on: SN12C renal
[25] = tested on: UACC-257 melanoma
[26] = tested on: HCC-2998 colon
[27] = tested on: HL-60(TB) leukemia
[28] = tested on: IGROV1 ovarian
[29] = tested on: RPMI-8226 leukemia
[30] = tested on: RXF 393 renal
[31] = tested on: 786-0 renal
[32] = tested on: HOP-62 NSCLC
[33] = tested on: CCRF-CEM leukemia
[34] = tested on: A498 renal
[35] = tested on: NCI-H522 lung
[36] = tested on: MCF7 breast
[37] = tested on: NCI-H23 lung
[38] = tested on: UACC-62 melanoma
[39] = tested on: HCT-15 colon
[40] = tested on: T-47D breast
[41] = tested on: LOX IMVI melanoma
[42] = tested on: EKVX NSCLC
[43] = tested on: OVCAR-4 ovarian
[44] = tested on: MOLT-4 leukemia
[45] = tested on: MDA-MB-435
[46] = tested on: DU-145 prostate
[47] = tested on: K-562 leukemia

`CC[C@@]1(O)C(=O)OCc2c1cc1n(c2=O)Cc2cc3c(CN(C)C)c(O)ccc3nc2-1` was tested, and the TGI [1] was 1.08 µM, 72.7 µM, 13.4 µM [sample A] and 42.4 µM [sample B], the GI50 [2] was 73.1 nM, 12.5 nM [sample A, 1 test] and 105 nM [sample A, mean of 6 tests] and 11.1 nM [sample B, 1 test] and the TGI [2] was 1.04 µM, 1.09 µM [sample A, 1 test] and 35.3 µM [sample A, mean of 6 tests] and 67.1 nM [sample B, 1 test]. The TGI [3] was 83.1 nM, 366 nM, 150 nM [sample A] and 123 nM [sample B], the TGI [4] was 2.29 µM, 6.48 µM, 1.93 µM [sample A] and > 100 µM [sample B] and the GI50 [5] was 16.5 nM [sample A, mean of 3 tests] and 21.4 nM [sample A, mean of 6 tests] and 67.1 nM [sample A, mean of 8 tests] and 18.6 nM [sample B, mean of 2 tests]. The TGI [5] was 2.09 µM [sample A, mean of 3 tests] and 4.3 µM [sample A, mean of 6 tests] and 28.3 µM [sample A, mean of 8 tests] and 3.28 µM [sample B, mean of 2 tests], the GI50 [6] was 136 nM [sample A, mean of 3 tests] and 45 nM [sample A, mean of 7 tests] and 55.6 nM [sample A, mean of 8 tests] and 13.3 nM [sample B, 1 test] and the TGI [6] was 2.1 µM [sample A, mean of 3 tests] and 1.26 µM [sample A, mean of 7 tests] and 24.7 µM [sample A, mean of 8 tests] and > 100 µM [sample B, 1 test]. The TGI [7] was 20.7 nM, 105 nM, 31.4 nM [sample A] and 71.1 nM [sample B], the GI50 [8] was 2.5 nM [sample A, mean of 2 tests] and 44.3 nM [sample A, mean of 7 tests] and 17.7 nM [sample B, mean of 2 tests] and the TGI [8] was 134 nM, 745 nM, 218 nM [sample A] and 220 nM [sample B]. The TGI [9] was 71.9 nM, 1.01 µM, 297 nM [sample A] and 1.23 µM [sample B], the GI50 [10] was 365 nM [sample A, mean of 4 tests] and 739 nM [sample A, mean of 5 tests] and 1.4 µM [sample A, mean of 8 tests] and 763 nM [sample B, 1 test] and the TGI [10] was 1.61 µM [sample A, mean of 4 tests] and 4.82 µM [sample A, mean of 5 tests] and 5.14 µM [sample A, mean of 8 tests] and > 100 µM [sample B, 1 test]. The GI50 [11] was 18.4 nM [sample A, mean of 4 tests] and 45.1 nM [sample A, mean of 6 tests] and 72.4 nM [sample A, mean of 7 tests] and < 11.7 nM [sample B, mean of 2 tests], the TGI [11] was 2.09 µM [sample A, mean of 4 tests] and 10.7 µM [sample A, mean of 6 tests] and > 62 µM [sample A, mean of 7 tests] and > 100 µM [sample B, mean of 2 tests] and the GI50 [12] was 59.5 nM [sample A, mean of 3 tests] and 347 nM [sample A, mean of 5 tests] and < 28.4 nM [sample B, mean of 2 tests]. For the same molecule, the TGI [12] was 844 nM, 19.4 µM, 228 nM [sample A] and 350 nM [sample B], the TGI [13] was 6.73 µM, 66 µM, 34.9 µM [sample A] and 5.55 µM [sample B] and the GI50 [14] was < 11.7 nM [sample A, mean of 2 tests] and 13.7 nM [sample A, mean of 5 tests] and 29.6 nM [sample A, mean of 6 tests] and < 10 nM [sample B, 1 test]. For the same molecule, the TGI [14] was 311 nM [sample A, mean of 2 tests] and 264 nM [sample A, mean of 5 tests] and 5.88 µM [sample A, mean of 6 tests] and 77.4 nM [sample B, 1 test], the TGI [15] was 380 nM, 1.57 µM, 237 nM [sample A] and 975 nM [sample B] and the TGI [16] was 2.76 µM, 5.96 µM, 4.96 µM [sample A] and 1.23 µM [sample B]. The TGI [17] was 3.67 µM, 5.42 µM, 9.25 µM [sample A] and 2.56 µM [sample B], the GI50 [18] was 3.74 nM, 12.5 nM [sample A, mean of 2 tests] and < 46.4 nM [sample A, mean of 6 tests] and < 10 nM [sample B, 1 test] and the TGI [18] was 16.3 nM, 5.41 µM [sample A, mean of 2 tests] and 3.36 µM [sample A, mean of 6 tests] and 112 nM [sample B, 1 test]. For the same molecule, the GI50 [19] was 7.23 nM, 16.4 nM [sample A, mean of 4 tests] and 27.6 nM [sample A, mean of 8 tests] and < 10 nM [sample B, mean of 2 tests], the TGI [19] was 553 nM, 4.42 µM [sample A, mean of 4 tests] and 3.1 µM [sample A, mean of 8 tests] and 94.1 nM [sample B, mean of 2 tests] and the TGI [20] was 7.76 µM and 274 nM. The TGI [21] was 6.61 µM, > 85.7 µM, 39.3 µM [sample A] and > 100 µM [sample B], the TGI [22] was 18.3 µM, 36.8 µM, 6.88 µM [sample A] and > 100 µM [sample B] and the TGI [23] was 260 nM, 17.8 µM, 223 nM [sample A] and 182 nM [sample B]. For the same molecule, the TGI [24] was 291 nM, 12.8 µM, 1.26 µM [sample A] and > 100 µM [sample B], the TGI [25] was 3 µM, 4.5 µM, 2.98 µM [sample A] and 1.45 µM [sample B] and the GI50 [26] was 533 nM [sample A, mean of 2 tests] and 490 nM [sample A, mean of 3 tests] and 465 nM [sample A, mean of 6 tests] and 78.3 nM [sample B, mean of 2 tests]. For the same molecule, the TGI [26] was 17 µM [sample A, mean of 2 tests] and 6.94 µM [sample A, mean of 3 tests] and 8.73 µM [sample A, mean of 6 tests] and 808 nM [sample B, mean of 2 tests], the TGI [27] was 275 nM, 1.63 µM, 35.7 nM [sample A] and 43.3 nM [sample B] and the TGI [28] was 3.11 µM, 35.2 µM, 17.2 µM [sample A] and > 34.9 µM [sample B]. For the same molecule, the TGI [29] was 6.84 µM, 31 µM, 26.1 µM [sample A] and 2 µM [sample B], the TGI [30] was 619 nM, 850 nM, 757 nM [sample A] and 159 nM [sample B] and the GI50 [31] was 12.5 nM [sample A, mean of 2 tests] and 246 nM [sample A, mean of 3 tests] and 25.8 nM [sample A, mean of 5 tests] and < 12.2 nM [sample B, mean of 2 tests]. The TGI [31] was 2.29 µM [sample A, mean of 2 tests] and 2.17 µM [sample A, mean of 3 tests] and 445 nM [sample A, mean of 5 tests] and 33.1 nM [sample B, mean of 2 tests], the TGI [32] was 499 nM, 1.99 µM, 20.7 nM [sample A] and 387 nM [sample B] and the TGI [33] was 484 nM, 540 nM, 213 nM [sample A] and < 47.1 nM [sample B]. The TGI [34] was 252 nM, 1.21 µM, 1.17 µM [sample A] and 84.8 nM [sample B], the TGI [35] was 433 nM, 3.46 µM, 2.69 µM [sample A] and 1.69 µM [sample B] and the TGI [36] was 25 µM, 2.46 µM [sample A] and > 100 µM [sample B]. The TGI [37] was 245 nM, 1.15 µM, 250 nM [sample A] and 299 nM [sample B], the GI50 [38] was 3.26 nM [sample A, mean of 3 tests] and 13.1 nM [sample A, mean of 6 tests] and 18.2 nM [sample A, mean of 8 tests] and < 10 nM [sample B, mean of 2 tests] and the TGI [38] was 71.5 nM [sample A, mean of 3 tests] and 54.8 nM [sample A, mean of 6 tests] and 429 nM [sample A, mean of 8 tests] and 137 nM [sample B, mean of 2 tests]. The TGI [39] was 6.26 µM, > 79.5 µM, 26.8 µM [sample A] and > 100 µM [sample B], the TGI [40] was 4.11 µM, 20.5 µM, 5.9 µM [sample A] and > 50 µM [sample B] and the GI50 [41] was 6.01 nM, 21.8 nM [sample A, mean of 4 tests] and 12.6 nM [sample A, mean of 7 tests] and < 10 nM [sample B, 1 test]. For the same molecule, the TGI [42] was 8.4 µM, > 83.3 µM, 9.55 µM [sample A] and > 100 µM [sample B], the TGI [43] was 2.78 µM, 48.3 µM, 13.9 µM [sample A] and > 95 µM [sample B] and the TGI [44] was 9.6 nM, 12.1 µM, 384 nM [sample A] and < 20.1 nM [sample B]. For the same molecule, the TGI [45] was 682 nM, 2.34 µM, 428 nM [sample A] and 471 nM [sample B], the GI50 [46] was 4.45 nM [sample A, mean of 3 tests] and 17.1 nM [sample A, mean of 4 tests] and 17.7 nM [sample A, mean of 5 tests] and < 11.8 nM [sample B, mean of 2 tests] and the TGI [46] was 100 nM [mean of 3 tests] and 171 nM [mean of 4 tests] and 2.72 µM [mean of 5 tests]. The GI50 [47] was 12.1 nM [sample A, mean of 4 tests] and 137 nM [sample A, mean of 8 tests] and 25.4 nM [sample B, 1 test] and the TGI [47] was 14.7 µM, > 87.1 µM, 63.7 µM [sample A] and > 100 µM [sample B].

From PubChem BioAssay (NCI)
